Assay results taken from US20250382361A1, “AFFIBODIES, HYDROGELS CONTAINING AFFIBODIES, AND USES THEREOF” (University of Oregon, priority 2024, published 2025).

Tests used:
NIH/3T3-Luc cells = assay: PDGF bioactivity luciferase reporter assay; type: cell-based; conditions: for luciferase expression vs rhPDGF-BB treatment only: affibody co-incubated with rhPDGF-BB, FIGS. 30C-30F
Method: NIH/3T3 fibroblast cells (ATCC) were thawed, seeded at 10,000 cell/cm^2, and expanded in growth medium consisting of DMEM containing 10% (v/v) fetal bovine serum (R&D Systems, Minneapolis, MN). Cultures were routinely maintained at 37° C. and 5% CO2 and passaged at 60-70% confluence. After three passages of expansion, NIH/3T3 cells were grown in Eagle's Minimal Essential Medium (EMEM, ATCC) for a single passage prior to transfection. Transfection mixtures were prepared according to the manufacturer's protocols. Briefly, 2500 ng of luciferase reporter plasmid pGL4.33 [luc2P/SRE/Hygro] (Promega), which contains a serum response element that regulates luciferase expression as a function of Rhoa GTPase activation and multiple mitogen activated phosphorylated kinase (MAPK) pathways, was combined with 12.5 μL of Lipofectamine Plus™ reagent and 227.5 μL of Opti-MEM buffer (Thermo Fisher Scientific, Waltham, MA) and mixed for 10 minutes at room temperature. Concurrently, Lipofectamine Plus™ mix was prepared by combining 14.3 μL of Lipofectamine Plus™ solution with 271.7 μL of Opti-MEM buffer solution for 10 minutes. Lipofectamine Plus™ mix was then combined with Plus Reagent DNA mix at a 1:1 ratio and incubated for an additional 15 minutes. During this step, NIH/3T3 cells were trypsinized and seeded into 96-well plates at 40,000 cells/cm^2 in 135 μl of EMEM. Cells were then transfected by adding 65 μL of Lipofectamine Plus Reagent DNA mix per well and incubated for 48 h at 37° C. and 5% CO2. Individual wells were combined to establish a polyclonal population of transfected cells. Cells were expanded and passaged 4 times between 60-70% confluency in growth medium containing 200 μg/mL hygromycin (selective medium) to remove the transiently transfected population, then continually passaged in selective medium to maintain the stably transfected NIH/3T3 cell population. Stably transfected NIH/3T3 cells, hereafter referred to as NIH/3T3-Luc, were expanded and stored in liquid nitrogen at post-transfection passage 5 until use.
NIH/3T3-Luc cells were seeded at 31,250 cells/cm^2 and incubated in 100 μL of growth medium overnight in 96 well plates. […] Luminescence was then measured using SpectraMax 13 plate reader (Molecular Devices, San Jose, CA).
PDGF bioactivity was assessed using NIH/3T3 cells transfected with a firefly luciferase gene reporter plasmid that links multiple ERK1/2 signaling pathways, including PDGFRβ signaling, to luciferase expression through a serum response element under the regulation of ERK1/2 (FIG. 30A). […] Firefly luciferase expression was assessed via the conversion of 5′-fluoroluciferin to oxyfluoroluciferin, which generates a stable luminescent output correlated to firefly luciferase concentration. […]

PDGF-BB = PDGF-BB (Homo sapiens, UniProt P01127); assay: Biolayer interferometry, affibody vs PDGF; type: binding; set-up: purchased PeproTech
Method: The binding interaction between PDGF and each soluble affibody was measured using a Gator® Plus biolayer interferometer (BLI; Gator Bio). Each soluble His-tagged affibody was diluted to 200 nM in PBS with 0.05% Tween20 (PBST; Thermo Fisher). Recombinant human PDGF-BB was buffer-exchanged into PBS and diluted to concentrations between 0-50 nM in PBST. Ni-NTA coated BLI probes (Gator Bio) were pre-soaked in 250 μL PBST for 45 minutes. The probes were then baselined with 200 μL PBST for 300 seconds and loaded with affibody for 180 seconds or until the wavelength shift plateaued. A new baseline was established using 200 μL PBST for 180 seconds, followed by 600 seconds of association with 200 μL of the various concentrations of rhPDGF-BB and dissociation for 600 seconds in 200 μL PBST.
(§1) Loaded probes were submerged in PBST until the baseline wavelength reading stabilized (approximately 300 seconds). 3.125-1000 nM of soluble VEGF-specific affibodies serially diluted in PBST were associated to the bVEGF-loaded probes for 600 seconds. Probes were then submerged into PBST or 600 seconds to measure dissociation of the affibodies. For measuring binding between PDGF and PDGF-specific affibodies, nitrilotriacetic acid (Ni-NTA) functionalized glass probes (GatorBio) were similarly pre-soaked in PBST, then loaded with 200 nM of PDGF-specific affibodies in PBST for 300 seconds until an approximate wavelength shift of 0.5 nm was achieved. Loaded probes were submerged in PBST until the baseline wavelength reading stabilized (approximately 300 seconds). 1.563-50 nM of soluble PDGF serially diluted in PBST were associated to the affibody-loaded probes for 600 seconds. Probes were then submerged into PBST for 600 seconds to measure dissociation of PDGF. Measurements were also taken of bVEGF loaded onto the streptavidin-functionalized probes without affibodies, affibodies loaded onto Ni-NTA probes without PDGF, and 0.0625-50 nM of PDGF without affibodies loaded onto Ni-NTA probes to subtract background signal from the data. Binding curves were normalized to data from probes loaded with only affibodies and only growth factors using GatorOne software 2.10 (GatorBio).
(§2) Biolayer interferometry (BLI) was also performed using streptavidin-functionalized glass probes to measure binding of affibodies to their off-target proteins.
(§3) Binding curves were fit to a global best-fit, non-linear regression model using GraphPad Prism 10.1.1 in which R^2>0.97 to determine the equilibrium dissociation constant (KD), on-rate constant (koff), and off-rate constant (kon) of each binding interaction.
Rosetta Rational Design Generates PDGF-specific Affibodies with Unique Binding Kinetics: Binding of PDGF to PDGF-specific affibodies was evaluated by loading nickel nitrilotriacetic acid (Ni-NTA)-coated BLI probes with 200 nM of each of the PDGF affibodies, followed by association of 1.563-50 nM of PDGF (FIG. 45G). […] Similar to the VEGF-specific affibody, the lower observed affinity between the original PDGF-specific affibody and PDGF on yeast surface display could be due to increased steric hindrance and decreased mobility of the PDGF-affibody binding interface compared to BLI.

VEGF = target: T1, VEGF (Homo sapiens, UniProt P15692); assay: Biolayer interferometry, soluble affibody vs bVEGF; type: binding; conditions: for Kd / koff / kon: BLI, binding to VEGF, global fit; for reduction in affinity for VEGF compared to the original VEGF affibody: BLI data
T1 construct: biotin (label as supplied by the vendor); purchased Acro Biosystems
T1 sequence (P15692 1-191 isoform P15692-4): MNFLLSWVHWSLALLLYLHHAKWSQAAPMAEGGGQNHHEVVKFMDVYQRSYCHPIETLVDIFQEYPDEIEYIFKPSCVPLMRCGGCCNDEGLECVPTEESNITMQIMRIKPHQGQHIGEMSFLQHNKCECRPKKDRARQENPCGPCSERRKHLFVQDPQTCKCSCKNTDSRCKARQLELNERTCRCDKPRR
Method: as §1, §2, §3
The weaker affinity observed on yeast surface display was likely due to increased steric hindrance and decreased mobility of the VEGF-affibody binding interface when the affibody was fixed within the yeast surface display construct compared to being freely accessible in solution during BLI.

HUVECs = assay: VEGF bioactivity HUVEC proliferation assay (CellTiter-Glo); type: cell-based, human; conditions: for inhibition of VEGF-induced HUVEC proliferation: 200 ng/ml VEGF pre-incubated with 1, 4, 20, 100, or 500 times molar excess of affibody; for HUVEC proliferation with affibody alone: 19,100 ng/mL affibody, no VEGF, 96 hours
FGF-2 = target: T2, FGF-2 (Homo sapiens, UniProt P09038); assay: Biolayer interferometry, soluble affibody vs bFGF-2; type: binding; conditions: 25 nM bFGF-2 on probe; 1000 nM affibody
T2 construct: biotin (label as supplied by the vendor); purchased Acro Biosystems
From the text: To further explore the affibody off-target binding observed on yeast surface display, biolayer interferometry (BLI) was used to measure off-target binding between soluble affibodies and proteins.

[1] = Far-UV circular dichroism thermal and pH stability; type: physicochemical
Method: Affibody folding stabilities were determined by measuring their far-ultraviolet (UV) circular dichroism (CD) spectra. To assess affibody stability across a range of physiologically relevant pH, affibodies were buffer exchanged into 10 mM Tris at pH 6, 7, 7.4, or 8 and diluted to 0.3 mg/mL. Affibody absorption spectra were then assessed as described above after 4 hours of incubation in the different pH media at room temperature.
To determine affibody melting temperatures, samples were prepared in 10 mM Tris pH 7.4 at 0.3 mg/mL. […] Far-UV spectra were taken before heating at 20° C., at 95° C., and after heating at 20° C. Melting temperatures were determined by fitting the change in 220 nm signal over the temperature range to a Boltzmann sigmoidal curve.
To assess affibody thermal stabilities, affibodies were buffer-exchanged into Tris 10 mM pH 7.4 and diluted to 0.3 mg/mL. To avoid potential freeze/thaw degradation after thermal degradation screening, affibodies were aliquoted and then immediately stored at −80° C. Affibody aliquots were removed from −80° C. and placed at either room temperature, 37° C., or 42° C. for a total of 1, 4, or 7 days. Far-UV spectra were measured as described above for all replicates of each temperature condition and plotted to determine the change in fraction folded compared to a baseline sample.
Affibody folding stabilities were determined by measuring their far-ultraviolet (UV) circular dichroism (CD) spectra.
Within extracellular spaces, bicarbonate and phosphate species within interstitial fluid are the main buffering components regulating pH. Tissue damage caused by chronic disease or injury can result in interstitial fluid pH ranging from 5-8. As such, affibody folding stabilities under variable pH were determined by incubation in 10 mM Tris at pH 6.0, 7.0, 7.4, or 8.0. Affibody folding stabilities under prolonged exposure to temperature treatment conditions were determined by incubation at room temperature (25° C.), physiological temperature (37° C.), and elevated temperature (42° C.) over 7 days (1, 4, or 7 days).

[2] = BLI, binding to PDGF, global fit

PDGF-BB, sequence (P01127 82-190 limits assumed): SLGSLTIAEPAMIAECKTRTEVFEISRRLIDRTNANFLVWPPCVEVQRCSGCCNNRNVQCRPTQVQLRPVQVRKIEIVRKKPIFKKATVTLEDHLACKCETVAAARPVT
T2 sequence (P09038 134-288): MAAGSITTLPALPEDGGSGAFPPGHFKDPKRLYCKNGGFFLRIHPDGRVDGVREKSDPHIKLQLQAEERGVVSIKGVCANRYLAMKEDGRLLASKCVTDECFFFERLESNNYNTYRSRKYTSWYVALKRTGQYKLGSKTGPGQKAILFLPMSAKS

Sequence: AEAKYAHELWEADWEITNLPNLSPDQLMAFYMALWDDPSQSSELLSEAKKLNDSQAPK [SEQ ID NO: 58]
- luciferase expression vs rhPDGF-BB treatment only (NIH/3T3-Luc cells): decreased
- koff (PDGF-BB; [2]): 0.003107 s⁻¹
- kon (PDGF-BB; [2]): 476,180 M^−1 s^−1
- Kd (PDGF-BB; Table 1, engineered PDGF affibodies, values match BLI): 6.44 nM

Sequence: AEAKYAKELDDASVEIWDLPNLTPCQKVAFFVALYDDPSQSSELLSEAKKLNDSQAPK [SEQ ID NO: 60]
- luminescent signal vs PDGF alone (NIH/3T3-Luc cells; PDGF pre-incubated with 20× molar excess of affibody): significant increase in luminescent signal
- luciferase expression vs rhPDGF-BB treatment only (NIH/3T3-Luc cells): decreased

Sequence: AEAKYNKEWYDAVFVIGSLPNLTEDQKAAFSDALVDDPSQSSELLSEAKKLNDSQAPK [SEQ ID NO: 77]
- Kd (VEGF): 455 nM
- koff (VEGF): 0.00418 s⁻¹
- kon (VEGF): 9190 M⁻¹ s⁻¹
- inhibition of VEGF-induced HUVEC proliferation (HUVECs): inhibited HUVEC proliferation at all doses except for 20× molar excess of affibody
- HUVEC proliferation with affibody alone (HUVECs): did not induce HUVEC proliferation in the absence of VEGF

Sequence: AEAKYNKEWYDAVFVIGSLPNLTEDQKDAFSAALVDDPSQSSELLSEAKKLNDSQAPK [SEQ ID NO: 78]
- reduction in affinity for VEGF compared to the original VEGF affibody (VEGF): 10,000 fold
- Kd (VEGF): 984000 nM
- koff (VEGF): 0.00769 s⁻¹
- kon (VEGF): 10.8 M⁻¹ s⁻¹
- binding to bFGF-2 on BLI (specificity) (FGF-2): negligible binding
- melting temperature (Tm) ([1]; CD at 220 nm, 20 to 95° C., 10 mM Tris pH 7.4): 56.6 °C
- folding after heating to 95° C. and cooling to 20° C. ([1]; far-UV CD spectra): reversible unfolding
- inhibition of VEGF-induced HUVEC proliferation (HUVECs): only inhibited HUVEC proliferation at the highest affibody dose of 500× molar excess to VEGF
- HUVEC proliferation with affibody alone (HUVECs): did not induce HUVEC proliferation in the absence of VEGF
- binding to bPDGF on BLI (specificity) (PDGF-BB; 25 nM bPDGF on probe, 1000 nM affibody): negligible binding

Sequence: AEAKYNKEWYDAVFVIGSLPNLTEDQKDAFSDALVADPSQSSELLSEAKKLNDSQAPK [SEQ ID NO: 79]
- reduction in affinity for VEGF compared to the original VEGF affibody (VEGF): 20 fold
- Kd (VEGF): 2050 nM
- koff (VEGF): 0.008368 s⁻¹
- kon (VEGF): 4080 M⁻¹ s⁻¹
- inhibition of VEGF-induced HUVEC proliferation (HUVECs): only inhibited HUVEC proliferation at the highest affibody dose of 500× molar excess to VEGF
- HUVEC proliferation with affibody alone (HUVECs): did not induce HUVEC proliferation in the absence of VEGF
